# Test results published in PubChem BioAssay AID1454 (National Center for Advancing Translational Sciences (NCATS), 2008).
# Out of some 130,000 compounds screened, about 550 (0.42%) were called active. The inconclusive results got no clear call from the source; some entries with a clear call stand among them for comparison. Calls come from the whole dose curve; as a rule, active = well fitted inhibition curve with a large enough effect; inconclusive = small, poorly fitted or top-dose-only effect, or effect the other way; inactive = flat fitted curve, though single readings scatter. Potencies of inconclusive entries are left out as doubtful fits.
# Test: qHTS Assay for Inhibitors of the ERK Signaling Pathway using a Homogeneous Screening Assay; Stimulation with EGF; note: nearly all actives have a fitted effect of over 55% in size;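 for activity change, negative = inhibition: plate controls were stimulated vehicle wells for no effect and unstimulated vehicle basal for full effect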
# Conditions: HEK293-V1b, EGF-stimulated phospho-ERK AlphaScreen; activity change, negative = inhibition: at the top concentration
# Method in brief: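 Concentration-response of compounds against EGF-driven ERK phosphorylation in V1b-expressing HEK293 cells; 30 min preincubation, 5 min EGF, AlphaScreen detection; Normalized to DMSO basal and 25 nM EGF.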
# Potency is the fitted concentration of half-maximal effect; tags give direction and shape of the fitted curve.
Compound,Potency,"activity change, negative = inhibition"
O=C(c1ccc(S(=O)(=O)c2cccc(Cl)c2)c([N+](=O)[O-])c1)N1CCN(c2ccccn2)CC1,"inconclusive [inhibitor, single point]",
COC(=O)c1ccc(C(/C=C/[C@@H](C)C(=O)N(C)C)NC(=O)OCc2ccccc2)cc1 (some centres not stated),,inactive: -5.02%
COc1cc(C)ccc1OCCOCCOc1ccc(C)cc1[N+](=O)[O-],"inconclusive [inhibitor, single point]",
O=C(N[C@@H](Cc1ccccc1)C(=O)CCl)OCc1ccccc1,"inconclusive [inhibitor, single point]",
CC(C)c1ccc(/C=C/C(=O)Nc2ccc(CN3CCOCC3)cc2)cc1,active: 35.5 µM,
O=[N+]([O-])c1ccc(N2CCCCC2)nc1N1CCCCC1,"inconclusive [inhibitor, partial curve]",
CC(C)CC(=O)Nc1cccc(-c2nc3ccccc3[nH]2)c1,"inconclusive [inhibitor, partial curve]",
O=C(c1cc2nc(-c3ccccc3)cc(-c3ccccc3)n2n1)N1CCCC1,"inconclusive [activator, partial curve]",
O=C1C2CCCCC2C(=O)N1c1ccc(NC2CCCCC2)c([N+](=O)[O-])c1 (configuration not stated),"inconclusive [inhibitor, single point]",
N#C/C(=C/c1ccc(-c2ccccc2[N+](=O)[O-])o1)C(=O)NCCN1CCCCC1,,inactive: -4.68% [at 57.5 µM]
Cc1ccc(S(=O)(=O)[N-]c2nc3ccccc3nc2-n2cc[n+](Cc3ccccc3)c2)cc1,"inconclusive [activator, partial curve, poor fit]",
COc1cc(/C=N/Nc2cccc3cccnc23)cc(OC)c1O,"inconclusive [inhibitor, partial curve]",
CCOC(=O)c1nc(-c2ccc(OC)c(OC)c2)no1,,inactive: 0.47%
COC(=O)c1ccc(SCC(=O)NC2CCCCC2)c([N+](=O)[O-])c1,,inactive: 0.639%
COC(=O)c1c(NC(=S)NN2CCOCC2)sc2c1CCCC2,"inconclusive [inhibitor, single point]",
Cc1cccc2nc3c(nc12)-c1ccccc1C3=O,"inconclusive [inhibitor, single point]",
CC(=O)c1ccc(N=Nc2ccc(C)cc2)cc1,"inconclusive [inhibitor, partial curve]",
O=C(CSc1nc2ccccc2c(=O)n1-c1ccccc1)NC(=O)CN1CCCC1=O,"inconclusive [inhibitor, full curve]",
O=c1c(-c2cc(F)cc(F)c2)nc2cnc(N3CCNCC3)nc2n1CCc1ccccc1,,inactive: -4.09%
Cc1ccc(C(C[N+](=O)[O-])Sc2ccc(N)cc2)cc1 (configuration not stated),"inconclusive [inhibitor, single point]",
COc1cccc(C2CC(=O)C3=C(C2)Nc2ccccc2N(C(=O)CCC(=O)O)C3c2ccc(F)cc2)c1 (configuration not stated),"inconclusive [inhibitor, single point]",
Cc1ccccc1-c1nnc(NC(=O)c2ccc(N3C(=O)CCC3=O)cc2)s1,"inconclusive [inhibitor, single point]",
COc1ccc(NCc2ccc([N+](=O)[O-])s2)c(OC)c1,"inconclusive [inhibitor, single point]",

Compound,Potency,"activity change, negative = inhibition"
COc1ccc(C(=O)/C=C/c2ccc(OC(=O)c3cc(OC)c(OC)c(OC)c3)cc2)cc1,"inconclusive [inhibitor, single point]",
CN1c2ccccc2C2(C)CCCC3=Cc4cc([N+](=O)[O-])cc([N+](=O)[O-])c4OC312 (configuration not stated),"inconclusive [inhibitor, partial curve]",
CCC(C)Nc1nc(N)c([N+](=O)[O-])c(Nc2cc(OC)ccc2OC)n1 (configuration not stated),"inconclusive [inhibitor, single point]",
CCCSc1nsc(NC(=O)c2cccnc2OCC)n1,"inconclusive [activator, partial curve, poor fit]",
O=C1OC2CCC1(c1ccccc1)C2 (configuration not stated),"inconclusive [activator, partial curve]",
COc1ccccc1NC(=O)Cn1c(O)c(N=NC(=O)c2ccccc2O)c2ccccc21,"inconclusive [inhibitor, single point]",
Cc1cccc2c1c1ccc3c(c1n2C)C(=O)C=CC3=O,"inconclusive [inhibitor, single point]",
O=C(O)CCC(=O)Nc1ccc(Br)cc1C(=O)c1ccccc1Cl,"inconclusive [inhibitor, partial curve]",
COc1ccc(/C=N/Nc2cc(C)nc(-n3nc(C)cc3C)n2)cc1,"inconclusive [inhibitor, single point]",
COc1ccccc1-c1cncnc1Nc1ccc(F)cc1,"inconclusive [activator, full curve, poor fit]",
COc1ccccc1NC1=Nc2cccc3cccc1c23,"inconclusive [inhibitor, partial curve]",
Cc1ccc(NS(=O)(=O)c2cc([N+](=O)[O-])ccc2NNC(=S)Nc2cc(C)ccc2C)c(C)c1,"inconclusive [inhibitor, single point]",
CCOC(=O)c1ccc(NC(=O)/C=C/c2cccs2)cc1,"inconclusive [inhibitor, single point]",
Cc1ccc(NC(=O)c2ccc(F)cc2)cc1S(=O)(=O)N1CCCCCC1,"inconclusive [inhibitor, single point]",
COc1ccc(-c2nc3cnc(N(C)C)nc3n(CCc3ccccc3)c2=O)cc1,"inconclusive [activator, full curve]",
CCCCc1cc2c(s1)CCCC/C2=N/O,"inconclusive [inhibitor, single point]",
CCN(CC)CCN1C(=O)c2cccc3cc(N)cc(c23)C1=O,"inconclusive [inhibitor, single point]",
CCN(CC)c1ccc(NC2CC(=O)N(CCc3ccc(OC)cc3)C2=O)cc1 (configuration not stated),active: 35.5 µM,
Cc1cc(/C=C2\NC(=S)N(C)C2=O)ccc1N1CCCC1,,inactive: -2.75%
CC1=C(C(=O)OCc2ccccc2)C(c2ccc(C(C)(C)C)cc2)NC(=O)N1CCCCCC(=O)O (configuration not stated),"inconclusive [inhibitor, partial curve]",
COc1ccc(-n2c(=O)c3ccccc3n(CC(=O)c3ccccc3)c2=O)cc1OC,"inconclusive [inhibitor, single point]",
CCOc1cccc(C(=O)c2ccc(O)c(O)c2O)c1,,inactive: -2.49%
COc1cc(C)ccc1OCCOc1cc(C)ccc1Cl,"inconclusive [inhibitor, single point]",

Compound,Potency,"activity change, negative = inhibition"
COc1ccc(CCNC(=O)c2ccc(-c3ccc([N+](=O)[O-])cc3)o2)cc1OC,"inconclusive [inhibitor, single point]",
C=CCc1cccc(CNc2ccc(Br)cc2)c1O,"inconclusive [inhibitor, single point]",
Clc1ccc(C2=NN(c3ccccc3)C(c3ccco3)C2)cc1 (configuration not stated),"inconclusive [activator, partial curve]",
O=C(Nc1ccc(N2CCCC2)cc1)c1cccc(-c2cc3ccccc3oc2=O)c1,"inconclusive [inhibitor, single point]",
CC(CCc1ccccc1)NCC#N (configuration not stated),,inactive: -6.33% [at 57.5 µM]
CCCOc1ccc(C2=NNC(c3cccs3)=Nc3ccc(OC)cc32)cc1,"inconclusive [inhibitor, partial curve]",
Cc1ccc(NC2=C/C(=N\S(=O)(=O)c3cccs3)c3ccccc3C2=O)c(C)c1,active: 12.6 µM,
Cn1c(=O)c2c(nc(N/N=C/c3cccs3)n2Cc2ccccc2)n(C)c1=O,"inconclusive [inhibitor, single point]",
CC(=O)C[C@H](c1ccc([N+](=O)[O-])cc1)c1c(O)c2ccccc2oc1=O,,inactive: -5.91% [at 25.7 µM]
COc1cc2ncnc(NCCc3ccccc3)c2cc1OC,active: 3.55 µM,
Cc1ccc(CN2CCN(/N=C/c3cccn3C)CC2)c(C)c1,"inconclusive [inhibitor, partial curve]",
COc1ccccc1N1CCN(C(=O)COc2ccc(S(=O)(=O)NC(C)(C)C)cc2)CC1,,inactive: -3.73%
Cc1cc(C)n(-c2nnc(NCc3ccc(Cl)cc3)nn2)n1,"inconclusive [inhibitor, partial curve]",
Cc1nn(-c2ccccc2)c(Cl)c1/C=C/C(=O)c1ccc(O)cc1,active: 15.8 µM,
O=C(Cc1ccc(Cl)cc1)Nc1ccncc1,,inactive: -0.872%
COc1ccc(/C=C/C(=O)NC(=S)N2CCN(C)CC2)cc1,"inconclusive [inhibitor, single point]",
CCC(=O)N1CCN(c2ccc(NC(=O)c3ccc(C#N)cc3F)cc2Cl)CC1,"inconclusive [inhibitor, single point]",
CN1/C(=C\C(=O)c2cccs2)C(C)(C)c2ccccc21,"inconclusive [activator, partial curve]",
CCN(CC)c1ccc(/C=N/N(c2ccccc2)c2ccccc2)c(O)c1,"inconclusive [inhibitor, partial curve]",
COc1cc(NC2c3ccccc3C(=O)N2Cc2ccccc2Cl)cc(OC)c1 (configuration not stated),"inconclusive [inhibitor, partial curve]",
CN(c1ccc(OCC(=O)OCC(=O)Nc2ccc(Br)cc2)cc1)S(=O)(=O)c1cccs1,,inactive: 7.17%
